# From paper PMC4336329 (PLoS ONE, 2015)
# Screen size: about 310,000 compounds; about 14,000 (4.5%) showed an effect of 50% or more. Effects have a minus sign here. The list shows a part of the results.
# Molecular target: human ether-à-go-go-related gene (hERG) potassium channel (human, UniProt Q12809)
# Assay: primary screen, population patch clamp on CHO cells stably expressing hERG
# 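Note: peak tail current of the secondary pulse compared with the same well before compound.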
# Sequence of human ether-à-go-go-related gene (hERG) potassium channel (Q12809 whole entry, looked up): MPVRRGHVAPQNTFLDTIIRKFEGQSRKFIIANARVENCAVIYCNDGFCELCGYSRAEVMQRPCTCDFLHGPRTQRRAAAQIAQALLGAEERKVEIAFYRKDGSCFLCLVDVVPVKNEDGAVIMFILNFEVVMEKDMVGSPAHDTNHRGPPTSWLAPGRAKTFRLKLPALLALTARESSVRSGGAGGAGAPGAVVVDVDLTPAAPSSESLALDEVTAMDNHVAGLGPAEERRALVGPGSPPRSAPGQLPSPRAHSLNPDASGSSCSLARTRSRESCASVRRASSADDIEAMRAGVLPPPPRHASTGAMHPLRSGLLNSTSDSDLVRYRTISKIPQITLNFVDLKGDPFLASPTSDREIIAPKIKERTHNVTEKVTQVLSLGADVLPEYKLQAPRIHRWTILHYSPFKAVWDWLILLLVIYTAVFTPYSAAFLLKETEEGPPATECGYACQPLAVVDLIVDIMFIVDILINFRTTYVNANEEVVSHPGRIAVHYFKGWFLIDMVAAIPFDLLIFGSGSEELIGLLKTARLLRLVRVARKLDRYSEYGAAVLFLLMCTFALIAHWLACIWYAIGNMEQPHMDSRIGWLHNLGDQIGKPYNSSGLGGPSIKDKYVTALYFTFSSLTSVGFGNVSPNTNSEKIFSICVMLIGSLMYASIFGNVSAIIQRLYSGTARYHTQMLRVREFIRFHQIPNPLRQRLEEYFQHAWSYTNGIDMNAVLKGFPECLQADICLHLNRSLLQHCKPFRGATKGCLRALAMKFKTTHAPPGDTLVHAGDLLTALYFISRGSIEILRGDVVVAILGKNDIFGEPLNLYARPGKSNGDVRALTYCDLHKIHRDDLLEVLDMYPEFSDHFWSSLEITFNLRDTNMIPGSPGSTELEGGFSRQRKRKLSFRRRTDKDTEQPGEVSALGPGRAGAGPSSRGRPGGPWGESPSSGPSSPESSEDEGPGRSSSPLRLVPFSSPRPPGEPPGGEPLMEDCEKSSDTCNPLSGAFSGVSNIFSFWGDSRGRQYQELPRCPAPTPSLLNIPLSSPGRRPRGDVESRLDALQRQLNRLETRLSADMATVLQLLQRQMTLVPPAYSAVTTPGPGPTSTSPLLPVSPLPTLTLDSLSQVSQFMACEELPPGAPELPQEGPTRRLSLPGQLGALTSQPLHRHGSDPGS
row,SMILES,"hERG current change (%, negative = inhibition) at 10uM"
1,CCOCCCNC(=O)C1CCC(CNS(=O)(=O)c2ccc(Cl)cc2)CC1 (stereo not shown),-12%
2,CCN(C(=O)CSc1nc2ccc([N+](=O)[O-])cc2s1)C1CCS(=O)(=O)C1 (stereo not shown),-61.8%
3,O=C(Oc1ccc(N2C(=O)C3C4CCC(C4)C3C2=O)cc1)c1ccco1 (stereo not shown),13.2%
4,COC(=O)C1=C(c2cccc(C#N)c2)C[C@@H]2CC[C@H]1N2C(=O)NCCNC(C)=O,20.3%
5,CCCCCCCN1CCC(=O)N(CCO)CC1,-54.3%
6,O=[N+]([O-])c1ccc(Cl)c(/C=N/N2CCN(c3ccccc3)CC2)c1,7.73%
7,CC(C)CN(C(=O)COC(=O)CCC(=O)c1ccc(Cl)cc1)c1c(N)n(Cc2ccccc2)c(=O)[nH]c1=O,10.4%
8,COc1cccc(NC(=O)[C@H](NC(=O)[C@@H]2Cc3ccccc3CN2)c2ccccc2)c1,-76.4%
9,CCOC(=O)N1CCN(C(=O)/C(=C\c2cccs2)NC(=O)c2cccs2)CC1,-71.8%
10,O=C(c1cncc(Br)c1)N1CCN(c2ccc(N3CCOCC3)nn2)CC1,-2.06%
11,C/C(=N\NC(=O)CN1CCN(Cc2ccccc2)CC1)c1cccs1,-50.9%
12,Nc1nnc(-c2cccc(F)c2)s1,13.7%
13,COC(=O)[C@@]12CCCN1[C@H](c1ccc(-c3ccc(Cl)c(Cl)c3)cc1)[C@H]1C(=O)N(C)C(=O)[C@H]12.O=C(O)C(F)(F)F,-25.5%
14,CN(C)CCCN1C(=O)c2cccc3c(Br)ccc(c23)C1=O,-66.4%
15,COc1ccc(OCC(=O)Nc2cccc(S(=O)(=O)N(C)c3ccccc3)c2)c([N+](=O)[O-])c1,-6.21%
16,CN1CCN(C(=O)CCN2C(=O)/C(=C/c3ccc(F)cc3)SC2=S)CC1,-4.02%
17,O=C(c1nc2ccccn2c1CNCCOc1cccnc1)N1CCOCC1,9.08%
18,O=C1NCCN(Cc2ccoc2)C1CC(=O)N(Cc1ccccc1)CC1CCC1 (stereo not shown),8.87%
19,O=C(c1ccccc1Oc1ccccc1)N1CCN(c2ccc(F)cc2)CC1,-33.9%
20,O=C(CSc1nc2ncc(Cl)cc2[nH]1)N(Cc1ccccc1)C1CCS(=O)(=O)C1 (stereo not shown),-2.63%
21,c1ccc(-c2nc3c4ccccc4ccn3c2CN2CCCCC2)cc1,-16%
22,Cc1cc(C)cc(N(CCC#N)C(=O)COC(=O)c2nc3nc(C)cc(C)n3n2)c1,-14.5%

row,SMILES,"hERG current change (%, negative = inhibition) at 10uM"
1,O=C(CSc1cn(CCNC(=O)c2ccccc2F)c2ccccc12)NCC1CCCO1 (stereo not shown),-6.8%
2,COc1ccc2c(c1)CCc1cnc(N)nc1-2,2.76%
3,CCC(C)(C)NC(=O)Cc1ccccc1OC,23%
4,O=C(NCCCNC(=O)c1ccccn1)c1ccc(F)cc1,18.6%
5,Oc1ccccc1N=Nc1nc(-c2ccccc2)c(-c2ccccc2)[nH]1,1.55%
6,Cc1c(C(=O)OC2CCCC2C)[nH]c2c1C(=O)CCC2 (stereo not shown),-16%
7,Cc1ccc(/C=C/C(=O)Nc2nn[nH]n2)o1,17.7%
8,C=CCC(=O)NC1CCCc2c1cnn2-c1cc(F)cc(F)c1 (stereo not shown),-75.7%
9,CN(CCc1ccccn1)C(=O)CCC1CCCN(C(=O)c2ccc3c(c2)OCCO3)C1 (stereo not shown),23.7%
10,Cc1cc(C)c(C)c(S(=O)(=O)N2CCN(C(=O)c3cc(=O)[nH]c4ccccc34)CC2)c1C,-27.5%
11,COc1ccc(C(=O)Nc2c3c(nn2C(C)(C)C)CS(=O)(=O)C3)cc1OC,13.1%
12,N#CC/C(N)=N/Nc1nc2ccccc2nc1Cc1ccccc1,6.93%
13,O=C(NC1CCCC1)c1cccnc1N1CCCCCC1,-3.7%
14,COc1cccc(C(c2c(C)[nH]n(-c3ccccc3)c2=O)c2c(C)[nH]n(-c3ccccc3)c2=O)c1O,-4.28%
15,COc1ccc(NS(=O)(=O)c2cn(C)cn2)cc1Cl,19.3%
16,COc1ccc(-c2cc(C(=O)NCc3cccs3)no2)cc1,7.1%
17,Cc1ccc(C)c(NC(=O)CN(C)C(=O)C2CCN(C(=O)Nc3ccccc3)CC2)c1,-1.27%
18,COCCOC(=O)c1c(C)oc2ccc(OS(C)(=O)=O)cc12,6.36%
19,CC1CCC/C(=C\Nc2ccc(C(=O)O)cc2)C1=O (stereo not shown),13.2%
20,CCOC(=O)c1nnc(-c2ccccc2)[nH]c1=O,3.44%
21,CCN(CC)C(=O)CSc1nnc(COc2cccc(C)c2)n1C,7.56%
22,CC(=O)Nc1ccc(S(=O)(=O)NCC(=O)OCC(=O)N2CCCc3ccccc32)cc1,4.4%

row,SMILES,"hERG current change (%, negative = inhibition) at 10uM"
1,CCOC(=O)CSc1[nH]c2cc(OC)ccc2c1[N+](=O)[O-],2.4%
2,O=C(CCN1C(=O)/C(=C/c2ccc(F)cc2)SC1=S)NC1C=CS(=O)(=O)C1 (stereo not shown),-15.2%
3,CCN(CC)S(=O)(=O)c1ccc2[nH]cc(C(=O)NCCc3ccc(OC)c(OC)c3)c(=O)c2c1,15%
4,CCOC(=O)N1CCN(c2ccc(S(=O)(=O)N3CCC(C)CC3)cc2[N+](=O)[O-])CC1,-32.7%
5,COc1cc(CN2CCN(Cc3ccc([N+](=O)[O-])cc3)CC2)c([N+](=O)[O-])cc1OC.O=C(O)C(=O)O,-68.2%
6,Cc1ccc(C)c(N2CCN(C(=O)CCC(=O)Nc3nnc(CC(C)C)s3)CC2)c1,17.2%
7,Cc1ccc(-n2ncc3c2CC(C)(C)CC3NC(=O)Cc2c(C)noc2C)cc1 (stereo not shown),-25.5%
8,CC(=O)Nc1ccc(OC(=O)COc2ccc(Br)cc2)cc1,6.16%
9,O=[N+]([O-])c1cc(Cl)ccc1N1CCOCC1,26.1%
10,O=C(NNC(=O)c1ccc([N+](=O)[O-])cc1Cl)c1ccncc1,-13.4%
11,O=C(Nc1ccc(F)cc1)c1ccc(S(=O)(=O)N2CCCC2)cc1,2.81%
12,CCOC(=O)N1CCN(c2cc(NCCC(=O)O)c3c4c(onc24)-c2ccccc2C3=O)CC1,-4.05%
13,CCN(CC)S(=O)(=O)c1ccc(N2CCOCC2)c(NC(=O)C2CSC3(C)CCC(=O)N23)c1 (stereo not shown),-30.7%
14,NC(=O)CCN(C(=O)c1cccc(S(=O)(=O)N2CCc3ccccc32)c1)c1ccccc1,-29.5%
15,CSC1=N/C(=C\c2ccc(C)cc2)C(=O)S1,-3.52%
16,COc1ccc([N+](=O)[O-])cc1C(=O)NC1CCN(Cc2ccccc2)CC1.Cl.O,-55.3%
17,CCOC(=O)NC(=O)c1cn(-c2ccc(OC)cc2)c(=O)[nH]c1=O,19.7%
18,O=C(CSCc1c(Cl)cccc1Cl)Nc1ccccc1-c1ccccc1,-5.25%
19,O=C(NCc1nc2ccccc2[nH]1)C1CCCCC1,12.4%
20,COc1ccccc1NC(=O)C1=C(C)NC(=O)NC1c1ccco1 (stereo not shown),-15%
21,NS(=O)(=O)c1ccc(NC(=O)c2ccc3c(c2)CCN3S(=O)(=O)c2ccccc2)cc1,17.2%
22,COc1ccc(Nc2nc3ccccc3n2C)cc1,11.3%

row,SMILES,"hERG current change (%, negative = inhibition) at 10uM"
1,CC(=O)Nc1ccc(S(=O)(=O)N(C)Cc2ccccc2)cc1,-12.7%
2,CCN1CCN(c2nc(Nc3cccc(OC)c3)nc(N)c2[N+](=O)[O-])CC1,-73.3%
3,COc1ccc(NC(=O)CN(C)C(=O)Cc2c(C)nc3ccccc3c2C)cc1,-46.1%
4,Cc1cc(C)c2c(n1)sc1c(=O)n(CC(=O)c3ccccc3)cnc12,-1.31%
5,C/C(Cl)=C/CSc1nnc2n(N)c(=O)c3ccccc3n12,-37.6%
6,Cc1cc(C)c([C@@H]2C[C@H]3CN(C4CCCC4)C(=O)[C@]34CCCN24)c(-n2cccn2)c1,-80.7%
7,Cc1ccc(C(=O)Nc2ccc(CN3CCS(=O)(=O)CC3)cc2)cc1C,5.47%
8,CCOCCCNC(=O)c1cc2sc(Cl)cc2n1CC,-19%
9,CCN(CC)C(=O)CSc1nc2ccccc2c(=O)n1CCC(=O)NCc1ccc(F)cc1,-23.4%
10,O=C(N/N=C/C1CC=CCC1)c1cc(Br)ccc1O (stereo not shown),16.5%
11,COc1ccc(N(CC(=O)NCc2cccc(OC)c2)S(=O)(=O)c2c(C)noc2C)cc1,-41.1%
12,Cc1ccc(-c2cc(=O)c3cc(F)ccc3[nH]2)cc1,7.02%
13,COc1ccc(C(=O)NC(=S)Nc2ccc(NC(=O)c3ccco3)cc2)cc1[N+](=O)[O-],15.8%
14,O=C(/C=C/Nc1cccc([N+](=O)[O-])c1)c1ccco1,2.26%
15,CCN(CC)c1ccc(C2Nc3cccc4cccc(c34)N2)cc1,4.92%
16,CCN1/C(=C2\C(=O)N(C)C(=S)N2C)C=Cc2cc(OC)ccc21,-11.8%
17,COC(=O)c1ccccc1NCc1cc(=O)oc2cc(O)c(O)cc12,9.61%
18,Cc1ccnc(N2CCC(C(=O)Nc3cccc(C(F)(F)F)c3)CC2)n1,-22%
19,Cc1cccc(C)c1NC(=O)C1(NC(=O)Cn2cccc([N+](=O)[O-])c2=O)CCCCC1,5.49%
